The other results are listed elsewhere or left out. Values were computed here from the reads of four pooled replicates and scatter widely.
Each sequence was assayed against T1, Pho4 (S. cerevisiae) (UniProt P07270) (assay: relative binding free energy (BET-seq); higher = weaker binding). Conditions: reference: library average.
T1 sequence: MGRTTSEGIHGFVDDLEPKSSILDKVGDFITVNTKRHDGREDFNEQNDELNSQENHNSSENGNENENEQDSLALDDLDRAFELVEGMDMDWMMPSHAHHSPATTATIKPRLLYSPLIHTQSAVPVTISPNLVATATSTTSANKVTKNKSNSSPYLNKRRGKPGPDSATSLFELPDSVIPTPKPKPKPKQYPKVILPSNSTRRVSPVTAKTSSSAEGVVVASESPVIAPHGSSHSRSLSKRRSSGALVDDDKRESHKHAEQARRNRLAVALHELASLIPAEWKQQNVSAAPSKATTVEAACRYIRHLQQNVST

Relative binding free energy, 0.04 kcal/mol:
TAGTGCACGTGATTAG, GTCAGCACGTGTTAAG, CTTCTCACGTGTGTGT, TAACACACGTGTTTTG, AGGGTCACGTGCGTAG, ACTGTCACGTGGTAGG, TGATGCACGTGAGTAA, GTAGGCACGTGTTAAA, TGGTGCACGTGTGTGT, CGGGTCACGTGGGGAT

Relative binding free energy, 0.23 kcal/mol:
GTCGTCACGTGAGGAG

Relative binding free energy, -0.12 kcal/mol:
TTAAGCACGTGGAGGA, GTATGCACGTGATCGT

Relative binding free energy, -0.11 kcal/mol:
TTGGGCACGTGGGCAT, TGATACACGTGGTGAG, GTGAGCACGTGGTAGT, AGATCCACGTGTGGTG

Relative binding free energy, 0.19 kcal/mol:
ACGGTCACGTGTGATG, GAGTGCACGTGATAGT, GCCTGCACGTGTCGGG, AGCGGCACGTGAGGGA

Relative binding free energy, 0.01 kcal/mol:
TGTTGCACGTGTTGTG, AGGGCCACGTGAGGTA, GTTAGCACGTGTTCTA, TCTGGCACGTGTAATT, GGGAGCACGTGGAGTT

Relative binding free energy, -0.22 kcal/mol:
AGTACCACGTGGGTGT

Relative binding free energy, -0.33 kcal/mol:
TAGGGCACGTGTGTAC

Relative binding free energy, -0.24 kcal/mol:
TGAGGCACGTGCGCGG, TAGCGCACGTGGTGTA

Relative binding free energy, 0.17 kcal/mol:
CGGGGCACGTGAGTAG, GTAGACACGTGATAGT

Relative binding free energy, -0.06 kcal/mol:
AAATACACGTGGTGGA, GGAAGCACGTGTCGGG, TATAGCACGTGGAAGG, CTTTGCACGTGATTAT

Relative binding free energy, 0.26 kcal/mol:
ATGTTCACGTGGATCG

Relative binding free energy, 0.06 kcal/mol:
GCCAGCACGTGTGGGT, AAAGTCACGTGGTTGG, ACAGGCACGTGTGAGT

Relative binding free energy, -0.2 kcal/mol:
AGAGGCACGTGGGGCA

Relative binding free energy, -0.19 kcal/mol:
TGGGGCACGTGGGCAG

Relative binding free energy, 0.18 kcal/mol:
TTGCGCACGTGAAGGT, ATCTACACGTGTGTTT, TGGTTCACGTGGCAAT

Relative binding free energy, 0.22 kcal/mol:
GAGGTCACGTGGGAAA, AAGGTCACGTGACGTA, AATTTCACGTGCTGGG, GATATCACGTGGCAGT, ATCTTCACGTGGGTAG

Relative binding free energy, 0.48 kcal/mol:
ATGTTCACGTGGAATA

Relative binding free energy, 0.14 kcal/mol:
GTCGTCACGTGGTAGG, AGTGACACGTGTAAGT, TGGGACACGTGTGTTA, TGATTCACGTGCATTT, TTTGACACGTGGAGTC

Relative binding free energy, 0.15 kcal/mol:
TGGGTCACGTGTAGAG, ATGAACACGTGTGGTA, TTGGTCACGTGCGGAG, TTAGGCACGTGAGCGG, TGAGTCACGTGGTGCT, GGTCTCACGTGGGCTA, CCATTCACGTGGGGTT, TTTTACACGTGTATAA

Relative binding free energy, 0.27 kcal/mol:
GTATTCACGTGGTCGG, ATGTTCACGTGATTCT

Relative binding free energy, -0.14 kcal/mol:
ATCTGCACGTGTTTGG, AAAAGCACGTGGTTGT, ATTTGCACGTGGGCAT

Relative binding free energy, -0.08 kcal/mol:
ATAAACACGTGTGTGT, TTGAACACGTGGTGTG, AGCAGCACGTGGATGG, AAGGACACGTGGTAGG, TTTGTCACGTGCGCAG, GGAAGCACGTGTTGCT

Relative binding free energy, 0.43 kcal/mol:
GTCGTCACGTGAAAGT, GTAGACACGTGAGGAG

Relative binding free energy, -0.15 kcal/mol:
GTCTCCACGTGGGGTG, GGGGGCACGTGGTCAG, AGGGCCACGTGGCATG, CAGGGCACGTGTGTAT

Relative binding free energy, -0.16 kcal/mol:
GTGCGCACGTGGTTTG, GTGACCACGTGTGTGG, TGAAGCACGTGCCGGG, CAATGCACGTGGGGGT

Relative binding free energy, 0.3 kcal/mol:
TATGTCACGTGAGCAT

Relative binding free energy, 0.1 kcal/mol:
TTGTGCACGTGTTGGT, GGGTGCACGTGATAGA, TAATACACGTGTGGAG, GGTCGCACGTGATGGA, CGGTTCACGTGGTGCG, ACGGGCACGTGTAAGG

Relative binding free energy, 0.25 kcal/mol:
TCTTTCACGTGTTATG, TGGATCACGTGATTTA

Relative binding free energy, 0.34 kcal/mol:
GGTTTCACGTGAGCGG, AAGTTCACGTGTGAGG

Relative binding free energy, 0.39 kcal/mol:
TTTCTCACGTGAGTGT, TCGGTCACGTGATTCG

Relative binding free energy, 0.08 kcal/mol:
GGGTGCACGTGTGTGA, GTTGGCACGTGTCGAT, TCCTTCACGTGGGGGT, AAGAGCACGTGAGGTT, TTACTCACGTGTGTAG

Relative binding free energy, 0.55 kcal/mol:
GGGTTCACGTGAAGGA

Relative binding free energy, 0.2 kcal/mol:
TATGACACGTGAGCGT, AAGGTCACGTGGAGTC

Relative binding free energy, -0.25 kcal/mol:
AGCGGCACGTGGGCGC, AGGGCCACGTGGAGTG

Relative binding free energy, -0.13 kcal/mol:
AAGTGCACGTGCGTTA

Relative binding free energy, -0.23 kcal/mol:
TCACGCACGTGGGGTA

Relative binding free energy, 0.33 kcal/mol:
AACTTCACGTGGGTGC, GTTATCACGTGACTGT, ATTCTCACGTGTGGCT

Relative binding free energy, -0.31 kcal/mol:
CTTAGCACGTGGGTAG

Relative binding free energy, 0.38 kcal/mol:
TAATTCACGTGACTGG, GTGTTCACGTGAGACT, TGCATCACGTGAGGAT

Relative binding free energy, 0.32 kcal/mol:
GGGCTCACGTGTTCTG

Relative binding free energy, 0.12 kcal/mol:
AACGTCACGTGCAGGG, CTTTTCACGTGGTAAG, ATGTGCACGTGAAAAG, GTAGTCACGTGTGATG

Relative binding free energy, 0.24 kcal/mol:
ATATGCACGTGAATAT, AGGGACACGTGAGGAT, GAATGCACGTGAATGT, CGTGTCACGTGTTTAT, CTGGTCACGTGGAGGA, CCGGTCACGTGTGGGT, AGATTCACGTGGAATT, TGTTTCACGTGAAGAG

Relative binding free energy, -0.3 kcal/mol:
AGCGGCACGTGCCGGG

Relative binding free energy, 0.42 kcal/mol:
TTTTACACGTGGAACG

Relative binding free energy, 0.35 kcal/mol:
GTAATCACGTGAGTTG, TGATTCACGTGGATTA

Relative binding free energy, -0.17 kcal/mol:
TGGGCCACGTGCGTGA

Relative binding free energy, 0.09 kcal/mol:
ATGCACACGTGAGGGT, AATTACACGTGGTTAT

Relative binding free energy, 0.41 kcal/mol:
GGTTTCACGTGGCGTT

Relative binding free energy, 0.03 kcal/mol:
GGATTCACGTGGGATA, ATGGTCACGTGTTCTG, TTGGGCACGTGTTTTT, AGTGTCACGTGTTGTA, TATATCACGTGTTCTG, GGGAGCACGTGTGAGA

Relative binding free energy, 0.13 kcal/mol:
TTGGTCACGTGCTGAG, GATCTCACGTGTGTGT, TTGTCCACGTGTTGGG, TAATTCACGTGGATTG

Relative binding free energy, 0.07 kcal/mol:
TGAGTCACGTGCGAGT, TTATGCACGTGTCGGG, GGAGACACGTGTTTGA, CGAGTCACGTGGGATA, GTGTCCACGTGTGTGA

Relative binding free energy, 0.28 kcal/mol:
GTTGTCACGTGTGGCG, GATGTCACGTGTATGG, TGATTCACGTGGCTGT

Relative binding free energy, -0.03 kcal/mol:
TCATGCACGTGGATTG, TGTAACACGTGTTCGT, TGTACCACGTGTGTTT, CATTACACGTGGTGTA, GGGAGCACGTGCGGGT, TGAGACACGTGGTAAG

Relative binding free energy, -0.01 kcal/mol:
CGGACCACGTGGGTTT, TGGGTCACGTGCATAG, GGGGACACGTGGCGGA

Relative binding free energy, -0.1 kcal/mol:
GTTTCCACGTGGGCGT, TCGGGCACGTGACGGT, AAGGGCACGTGCGTGA

Relative binding free energy, 0.45 kcal/mol:
TAATTCACGTGGAACG, GTCGACACGTGAGTGT

Relative binding free energy, -0.21 kcal/mol:
TCTAACACGTGGGGTT, TTTCGCACGTGGGGTA, AAGGGCACGTGTATTG

Relative binding free energy, 0.05 kcal/mol:
TAGGTCACGTGTGGCC, GGGAACACGTGTGTGC, TTGTCCACGTGTCTTG, TGTTGCACGTGTTTCC, GGTAGCACGTGTTACT, AATGCCACGTGTTTTT

Relative binding free energy, 0 kcal/mol:
ATAGTCACGTGTTTAA, TTGTGCACGTGTTTAC, AGTACCACGTGATGGT, AAATGCACGTGTATGA, GAACGCACGTGGAGGT, TGAAGCACGTGTCTGT

Relative binding free energy, -0.02 kcal/mol:
GCACGCACGTGTGGTG, GTGGGCACGTGTCGAA, GTGGACACGTGGCCGT, ATGGGCACGTGATATA, ATAGACACGTGTTGCT, TTGAACACGTGGTTTG

Relative binding free energy, 0.31 kcal/mol:
TAAGTCACGTGTGATG, ATATTCACGTGAAGTG, GTAATCACGTGTTGGT, ATTCTCACGTGTTGGA, AGAAACACGTGAGGGC, TGTTCCACGTGAAAGG

Relative binding free energy, 0.11 kcal/mol:
TGGGGCACGTGAGTCA, GTGGTCACGTGTGAGC

Relative binding free energy, -0.07 kcal/mol:
GTTGCCACGTGGATTT, AAGGGCACGTGTGTGA, GGGGGCACGTGGAACA

Relative binding free energy, 0.02 kcal/mol:
GTGGTCACGTGGGGAT, AATATCACGTGTTTTG, GATTGCACGTGGGTAT, TGACGCACGTGTGTTT, GGGTGCACGTGTTGGA, TAGTCCACGTGGTTTG, GGGGTCACGTGGGGAT

Relative binding free energy, 0.29 kcal/mol:
TCGTTCACGTGCTGGA, TTTTTCACGTGGTTTG

Relative binding free energy, -0.28 kcal/mol:
TTACGCACGTGGTTAT

Relative binding free energy, -0.39 kcal/mol:
CTAGGCACGTGGGTTA

Relative binding free energy, 0.16 kcal/mol:
TTACTCACGTGGAGTG, CGTATCACGTGCGTTG, ATTTGCACGTGAAAGG

Relative binding free energy, -0.05 kcal/mol:
TCAGGCACGTGTTATA

Relative binding free energy, -0.18 kcal/mol:
ATTAGCACGTGGGATG, CGTAGCACGTGGTAGT, ATTGGCACGTGATATA

Relative binding free energy, 0.21 kcal/mol:
CTGTTCACGTGTTATA, CGAGTCACGTGGGATT, GGCTTCACGTGTTTCG

Relative binding free energy, -0.04 kcal/mol:
TGATGCACGTGCTAGG, ATAGGCACGTGCAGTT, GTGGCCACGTGCGGTT, TGGAACACGTGGTGAT, TGTGGCACGTGGCTCG, AGTGTCACGTGTACAG, ATGAGCACGTGTGGGA

— the BET-seq Pho4 binding data (Le et al. 2018)
